Measured values published in PubChem BioAssay AID1508642 (National Center for Advancing Translational Sciences (NCATS), 2021).
Screen size: about 43,000 compounds; about 200 (0.47%) were called active. Not shown: some 12% with an inconclusive outcome. Calls follow the shape of the dose curve; as a rule, active = well fitted cell-killing curve with a large enough effect; inconclusive = small, poorly fitted or top-dose-only effect, or effect the other way; inactive = flat fitted curve, though single readings scatter. Some of the results follow.

experiment: Cell viability qHTS assay in S16 Pmp22-F2sN cells; conditions: S16 Pmp22-F2sN Schwann cells (luciferase reporters placed in the Pmp22 gene) viability, CellTiter-Glo, 24 h; at 57.5 µM (top of the series); also: nearly all actives have a fitted effect of over 65% in size
Source text: Assay Provider: Jim Inglese Ph.D. National Center for Advancing Translational Science, National Institutes of Health, Rockville, MD CMT is a heterogeneous group of neurological disorders that affect approximately 1 in 2,500 people. In particular, the most common form of CMT, CMT1A is genetically linked to the duplication of the PMP22 gene which leads to Schwann cell overexpression, thus manifesting itself as a typical case of dose-sensitive diseases. To identify small molecule compounds that can mediate the expression of PMP22 we developed a phenotypic assay screening strategy by utilizing genome editing techniques to construct Schwann cell lines containing novel reporter technology to monitor the transcriptional or translational regulation of PMP22. For high sensitivity we use a bioluminescent reporter system embedded in the 3' UTR of the PMP22 gene (S16(c9) Pmp22-F2sN) to identify compounds that inhibit gene expression. […] We can further discriminate the effect of all transcriptionally active molecules on PMP22 translation or stability with an assay that incorporates a short NLuc peptide (HiBiT) at the C-terminus of expressed PMP22 (S16(f8) PMP22-HiBiT) allowing alpha complementation and luminescence detection of membrane-associated PMP22 protein. These assays were screened against the NCATS Sytravon Library Collection. Miniaturization of these assays to 1536-well plate format for quantitative high throughput screening (qHTS) yielded rich data sets immediately from the qHTS assay (S16(c9) Pmp22-F2sN), when compared with data from a cell viability assay (Cell TiterGlo) to identify compounds that decreased the output signals through cellular toxicity to streamline the selection process of actives for subsequent characterization using the HiBiT assay (S16(f8) PMP22-HiBiT).
Cell viability assay in S16 Pmp22-F2sN cells PROTOCOL TABLE (format as described by Inglese J, Shamu CE and Guy RK. 2007) SEQUENCE No. (e.g., 1, 2, 3, etc.); […] (e.g., Cells, Incubation, Reagent, etc.); VALUE and DESCRIPTION. 1. Cells. Add 500-1,000 cells in 4 uL in growth media (DMEM High Glucose, No Phenol Red media + 10% heat-inactivated FBS + 1% Pen/Strep supplemented media) per well into Greiner 1536-well white/solid bottom high base, TC-treated plates. 2. Compounds. Library compounds and controls added at 23nL per well, transferred by Pin Tool. 3. Incubation. Incubate plates at 37C, 5% CO2, 95% RH for 24 h. 4. Reagent. Add 3uL CellTiter-Glo per well of Greiner 1536-well plates. 5. Incubation. Incubate plates at room temperature for 15 min., protect from light. 6. Detector. FLuc luminescence measured using CCD-based camera (Viewlux). NOTES (numbers refer to Sequence numbers above; values are from representative experiments) 6. Luminescence Read: Clear filter; Exposure = 1 sec, Gain = High, Speed = Slow, Binning = 2X REFERENCES: 1. Inglese J, Shamu CE and Guy RK, Reporting data from high throughput screening of small molecule libraries, Nature Chemical Biology, 2007, 3(8): 438-441. doi.org/10.1038/nchembio0807-438 2. Yasgar A, Shinn P, Jadhav A, Auld DS, Michael S, Zheng W, Austin CP, Inglese J and Simeonov A, Compound Management for Quantitative High-Throughput Screening. J. Assoc. Lab. Auto., 2008, 13: 79-89. doi: 10.1016/j.jala.2007.12.004
% is scaled to controls: 0 for no effect and ±100 for the full control effect.

Structure (SMILES)	activity change, negative = cytotoxicity
Cc1ccc(NC(=O)CN2C(=O)CN=C(c3ccccc3)c3ccccc32)cc1	inactive: -14.6%
CCCCCc1nc2ccccc2c(=O)n1-c1ccc(C)cc1	inactive: 23.6%
Cc1ccccc1-n1nc(C)c2c1NC(=O)CSC2c1ccc(N(C)C)cc1 (stereo not drawn)	inactive: -3.43%
Cc1ccc(CN2C(=O)c3ccccc3Sc3ccc(C(=O)N4CCC5(CC4)OCCO5)cc32)cc1	inactive: -19.3%
COc1ccc(-n2c(/C=C\c3ccccc3F)nc3ccccc3c2=O)cc1OC	inactive: -28.6%
COc1cccc(-n2c(/C=C/c3ccccc3O)nc3ccccc3c2=O)c1	inactive: 27.3%
CC(C)c1nn2c(=O)cc(COC(=O)Cc3ccccc3)nc2s1	inactive: -4.52%
O=C1CN=C(c2ccccc2Cl)c2cc(Cl)ccc2N1Cc1cccc(Cl)c1	inactive: -9.81%
Cc1ccc(NC(=O)c2cccn(Cc3ccccc3C)c2=O)c(C)c1	inactive: 23.8%
CC(C)(C)c1ccc(C(=O)Nc2ccc(Cl)cc2C(=O)c2ccccc2)cc1	inactive: 8.74%
O=C(Nc1cc(C(F)(F)F)cc(C(F)(F)F)c1)c1cccn(Cc2ccccc2Cl)c1=O	inactive: -0.317%
C=Cc1ccc(Cn2c(C)c(CNCCc3cc(OC)ccc3OC)c(C(=O)O)c2C)cc1	inactive: 11.9%
Cc1ccccc1Cn1cccc(C(=O)Nc2nc3ccccc3s2)c1=O	inactive: 0.463%
CCCCc1nn2c(=O)cc(COC(=O)Cc3ccccc3)nc2s1	inactive: 25.4%
O=C(Nc1ccc(F)c([N+](=O)[O-])c1)c1cccn(Cc2ccccc2)c1=O	inactive: 6.96%
COc1ccc(NC(=O)c2sc3nc4c(cc3c2N)N2CCC4CC2)cc1OC	inactive: -35.3%
Cc1ccc2c(c1)C(Cc1nc3ccccc3c(=O)n1-c1ccc(Br)cc1)C(=O)N2 (stereo not drawn)	inactive: 0.884%
O=C(COc1cc(Cl)ccc1Cl)Nc1ccc(Cl)cc1C(=O)c1ccccc1	inactive: 5.95%
Cn1c(=O)n(C)c2cc(CNCCc3ccc(F)cc3)ccc21	inactive: 8.78%
Cc1ccc(NC(=O)Cn2cc(C(=O)c3ccccc3)c3ccccc32)cc1	inactive: -24%
Cc1ccc2nc(NC(=O)c3cccn(Cc4ccc(Cl)cc4)c3=O)sc2c1	inactive: 3.22%
CCOc1ccc(CN(CCc2ccc3c(c2)OCO3)Cc2cccc(OC)c2)cc1	inactive: 9.23%

Structure (SMILES)	activity change, negative = cytotoxicity
COc1ccc(C)cc1NC(=O)N(Cc1ccc2c(c1)OCO2)C1CCN(Cc2ccccc2)CC1	inactive: -26.1%
CC(C)C12CN3CC(C(C)C)(CN(C1)C3c1ccccn1)C2=O (stereo not drawn)	inactive: -2.24%
CCOc1ccc(NC(=O)Cn2cc(C(=O)c3ccccc3)c3ccccc32)cc1	inactive: -9.39%
Cc1ccc(-n2c(/C=C\c3ccc(F)cc3)nc3ccccc3c2=O)cc1Cl	inactive: -5.24%
COc1cccc(NC(=O)Cn2cc(C(=O)c3ccccc3)c3ccccc32)c1	inactive: -2.61%
CCN(CC)CCSc1nc2ccccc2c(=O)n1-c1ccc(Cl)cc1	inactive: -25.5%
Cc1cccc(Cn2cccc(C(=O)Nc3ccc4c(c3)OCCO4)c2=O)c1	inactive: 22%
Cc1ccc(Cn2cccc(C(=O)Nc3ccc4c(c3)OCO4)c2=O)cc1	inactive: -1.39%
Cc1cc(-n2c(/C=C/c3cccs3)nc3ccccc3c2=O)ccc1Br	inactive: -9.78%
Cc1cc(-n2c(/C=C/c3ccc(Br)s3)nc3ccccc3c2=O)ccc1Br	inactive: 0.144%
Cc1c(C(c2ccc(Cl)cc2Cl)c2c(O)c3ccccc3oc2=O)c(=O)n(-c2ccccc2)n1C (stereo not drawn)	inactive: 6.08%
CCCCc1ccc(NC(=O)c2cccn(Cc3ccc(Cl)cc3)c2=O)cc1	inactive: -5.27%
O=c1c2ccccc2nc(/C=C\c2ccccc2F)n1-c1ccc(O)cc1	inactive: -4.83%
Cc1ccc(-n2c(/C=C/c3cc(Br)cs3)nc3ccccc3c2=O)cc1	inactive: -17.6%
Cc1ccc(OCC(=O)N2CCN(CCc3ccncc3)CC2)cc1C	inactive: 24.4%
COc1ccc(C(=O)Nc2ccc(Cl)cc2C(=O)c2ccccc2)c(OC)c1	inactive: 22.3%
Cc1ccccc1CN1C(=O)CN=C(c2ccccc2)c2cc(Cl)ccc21	inactive: 2.54%
Cc1cccc(-n2c(/C=C/c3ccccc3O)nc3ccccc3c2=O)c1	inactive: 0.599%
CCc1ccc(NC(=O)c2cccn(Cc3cccc([N+](=O)[O-])c3)c2=O)cc1	inactive: 8.5%
Cc1ccc(-n2c(/C=C/c3ccc(Br)s3)nc3ccccc3c2=O)cc1	inactive: -29.6%
COc1ccc(Cl)cc1NC(=O)CN1C(=O)CN=C(c2ccccc2)c2cc(Cl)ccc21	inactive: -2.58%
O=C(CCc1nc(C2=CCN(Cc3cccc(Cl)c3)CC2)no1)Nc1ccccc1F	inactive: 0.712%

Structure (SMILES)	activity change, negative = cytotoxicity
O=c1c2ccccc2nc(/C=C\c2ccc(F)cc2)n1-c1ccccc1F	inactive: -25.2%
CC(=O)NS(=O)(=O)c1ccc(NC(=O)c2cccn(Cc3ccc(Cl)cc3)c2=O)cc1	inactive: -3.92%
Cc1cccc(NC(=O)Cn2cc(C(=O)c3ccccc3)c3ccccc32)c1	inactive: -20.5%
O=S1(=O)N(Cc2ccccc2)CCCN1Cc1cccc(Cl)c1	inactive: -3.33%
Cc1ccc(Cn2cccc(C(=O)Nc3cc([N+](=O)[O-])ccc3C)c2=O)cc1	inactive: 11.6%
O=C(COc1cccc(Cl)c1)N1CCN(CCc2ccncc2)CC1	inactive: 13.2%
O=C(COc1ccccc1Cl)N1CCN(CCc2ccncc2)CC1	inactive: 0.167%
Cc1cccc(-n2c(/C=C/c3cn(C)c4ccccc34)nc3ccccc3c2=O)c1	inactive: 12.5%
Cc1cc(NC(=O)c2cccn(Cc3cccc(Cl)c3)c2=O)no1	inactive: 25.5%
Cc1ccc(-c2nc(CN3C(=O)CN=C(c4ccccc4)c4cc(Cl)ccc43)c(C)o2)cc1	inactive: -5.67%
COc1ccc(/C=C/c2nc3ccccc3c(=O)n2-c2ccc(C)cc2)cc1O	inactive: 1.9%
O=C(Nc1ccon1)c1cccn(Cc2ccccc2)c1=O	inactive: -3.43%
O=C(Nc1ccon1)c1cccn(Cc2cccc(Cl)c2)c1=O	inactive: 1.06%
Cc1oc(-c2ccc(Cl)cc2)nc1CN1C(=O)CN=C(c2ccccc2)c2ccccc21	inactive: -15.1%
O=c1[nH]c2ccccc2c(=O)n1-c1ccc(Cl)c(Cl)c1	inactive: -6.36%
O=C1CC(c2ccc(Br)cc2)c2c(c3ccccc3oc2=O)O1 (stereo not drawn)	inactive: -9.81%
CCC12CN3CC(CC)(CN(C1)C3c1ccccn1)C2=O (stereo not drawn)	inactive: -0.613%
CC(=O)N1CC(=O)Nc2ccc(F)cc2C1c1ccccc1 (stereo not drawn)	inactive: -4.99%
Cc1cc(C)cc(-n2c(=O)[nH]c3ccccc3c2=O)c1	inactive: 1.67%
CCCSc1nc2ccccc2c(=O)n1-c1ccccc1OC	inactive: 4.53%
Cc1c(C(c2ccc(F)cc2)c2c(O)c3ccccc3oc2=O)c(=O)n(-c2ccccc2)n1C (stereo not drawn)	inactive: -5.04%
O=C(COc1ccc(Cl)cc1)Nc1ccc(Cl)cc1C(=O)c1ccccc1	inactive: -2.73%

Structure (SMILES)	activity change, negative = cytotoxicity
Cc1nnc(NC(=O)c2cccn(Cc3ccccc3F)c2=O)s1	inactive: 8.03%
O=C1CC(c2c(F)cccc2Cl)c2c(c3ccccc3oc2=O)O1 (stereo not drawn)	inactive: -4.36%
Cc1ccc(-n2c(/C=C/c3ccc(Br)s3)nc3ccccc3c2=O)cc1C	inactive: -14.5%
Cc1nnc(NC(=O)c2cccn(Cc3ccc(Cl)cc3)c2=O)s1	inactive: -0.998%
Cc1cc(C)cc(-n2c(/C=C/c3cccc(F)c3)nc3ccccc3c2=O)c1	inactive: 3.57%
COc1ccc(NC(=O)CN2C(=O)C(C)N=C(c3ccccc3F)c3cc(Cl)ccc32)c(OC)c1 (stereo not drawn)	inactive: -17.6%
CSc1ccc(C(c2c(O)c3ccccc3oc2=O)c2c(C)n(C)n(-c3ccccc3)c2=O)cc1 (stereo not drawn)	inactive: -0.189%
CN1CCN(c2csc3ccc(F)cc3c2=O)CC1	inactive: 4.37%
N#Cc1cc2c(nc1SCC(=O)Nc1cccc(F)c1)C1CCN2CC1	inactive: -15.5%
CCOc1ccc(-n2c(/C=C/c3ccccc3)nc3ccccc3c2=O)cc1	inactive: -25.1%
O=C(Nc1ccc2c(c1)OCCO2)c1cccn(Cc2cccc([N+](=O)[O-])c2)c1=O	inactive: -8.56%
N#Cc1cc([N+](=O)[O-])ccc1NC(=O)c1cccn(Cc2cccc(F)c2)c1=O	inactive: 4.43%
CCCCc1nc2ccccc2c(=O)n1-c1cccc(OC)c1	inactive: 19.2%
Cc1ccc(NC(=O)CN2C(=O)CN=C(c3ccccc3)c3ccccc32)c(C)c1	inactive: 6.92%
COc1ccc(-c2nn3c(=O)cc(CN4CCN(C(=O)COc5ccc(F)cc5)CC4)nc3s2)cc1	inactive: -3.31%
Cc1oc(-c2ccc(Cl)cc2)nc1CN1C(=O)CN=C(c2ccccc2)c2cc(Cl)ccc21	inactive: -4.68%
CCc1ccc(OCC(=O)N2CCN(CCc3ccccn3)CC2)cc1	inactive: 5.64%
COc1ccccc1-n1c(/C=C/c2ccccc2)nc2ccccc2c1=O	inactive: -0.365%
Cn1c(=O)n(C)c2cc(CNCCc3ccccc3)ccc21	inactive: 0.328%
Cc1ccccc1Cn1cccc(C(=O)Nc2cc(Cl)ccc2C#N)c1=O	inactive: 8.25%
Cc1cc(NC(=O)c2cccn(Cc3cccc([N+](=O)[O-])c3)c2=O)no1	inactive: -10.2%
CCC(=O)N1CC(=O)Nc2ccc(C)cc2C1c1ccc(F)cc1 (stereo not drawn)	inactive: 1.32%
